Test results published in paper PMC5700166.
This is a selection; strong and weak results do not stand in their true shares. The list includes weakly bound sequences.

The sequences below were run against T1, GST-Co-NF-kB (UniProt F1ARL5) (assay: protein-binding microarray (PBM)). Conditions: PBM: ~300 nM protein, 6 mM HEPES pH 7.8, 80 mM KCl, 0.5 mM EDTA, 0.5 mM EGTA, 6% glycerol, 35 ng/ul poly-dIdC, 1% milk, 1 h, room temperature; Ap Aiptasia and Nv Nematostella (sea anemones) / Co Capsaspora / Aq Amphimedon (sponge) / Dm Drosophila / Hu human; RHD is the Rel homology domain; high values mean tight binding; most listed sequences are background and not binding sites; double strand, one strand shown.
T1 sequence: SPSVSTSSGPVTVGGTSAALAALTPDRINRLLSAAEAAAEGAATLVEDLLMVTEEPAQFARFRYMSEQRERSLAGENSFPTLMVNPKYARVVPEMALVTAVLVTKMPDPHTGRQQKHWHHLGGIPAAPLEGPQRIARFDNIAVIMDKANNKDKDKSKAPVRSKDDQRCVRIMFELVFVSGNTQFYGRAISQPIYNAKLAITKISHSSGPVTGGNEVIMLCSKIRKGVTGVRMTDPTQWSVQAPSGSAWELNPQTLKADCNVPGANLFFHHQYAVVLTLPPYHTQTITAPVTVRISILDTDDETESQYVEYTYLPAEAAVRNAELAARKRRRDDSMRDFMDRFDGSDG

Sequence	binding signal [z-score]
CCGATTAACATCAGGATCCCCCCTGATGTTAATCGGGTCTTGATTCGCTTGACGCTGCTG	5.45
CCGATTAACATCAGGGGTTTTACTGATGTTAATCGGGTCTTGATTCGCTTGACGCTGCTG	1.49
CCGATTAACATCATATTCCCCCATGATGTTAATCGGGTCTTGATTCGCTTGACGCTGCTG	8.84
CCGATTAACATCAGGCCATTCCCTGATGTTAATCGGGTCTTGATTCGCTTGACGCTGCTG	0.178
CCGATTAACATCAGGGGAGGTACTGATGTTAATCGGGTCTTGATTCGCTTGACGCTGCTG	3.96
CCGATTAACATCAGGGGGTTGGATGATGTTAATCGGGTCTTGATTCGCTTGACGCTGCTG	2.05
CCGATTAACATCACTCTTCTCGGTGATGTTAATCGGGTCTTGATTCGCTTGACGCTGCTG	0.813
CCGATTAACATCAGGAAATACCCTGATGTTAATCGGGTCTTGATTCGCTTGACGCTGCTG	1.14
CCGATTAACATCACGGGGGGGGATGATGTTAATCGGGTCTTGATTCGCTTGACGCTGCTG	7.62
CCGATTAACATCAGGCAAGCCCCTGATGTTAATCGGGTCTTGATTCGCTTGACGCTGCTG	0.173
CCGATTAACATCAACATTACCCCTGATGTTAATCGGGTCTTGATTCGCTTGACGCTGCTG	4.07
CCGATTAACATCAATTTTCCCCCTGATGTTAATCGGGTCTTGATTCGCTTGACGCTGCTG	12
CCGATTAACATCAGGGGAGTTCATGATGTTAATCGGGTCTTGATTCGCTTGACGCTGCTG	3.54
CCGATTAACATCAATAAACCCCCTGATGTTAATCGGGTCTTGATTCGCTTGACGCTGCTG	2.94
CCGATTAACATCAGAAAAATACCTGATGTTAATCGGGTCTTGATTCGCTTGACGCTGCTG	0.305
CCGATTAACATCAGAAACTTCCCTGATGTTAATCGGGTCTTGATTCGCTTGACGCTGCTG	2.41

Sequence	binding signal [z-score]
CCGATTAACATCACGGGAAATTCTGATGTTAATCGGGTCTTGATTCGCTTGACGCTGCTG	5.06
CCGATTAACATCACAAATTTCCCTGATGTTAATCGGGTCTTGATTCGCTTGACGCTGCTG	5.22
CCGATTAACATCAGGGATTCTCATGATGTTAATCGGGTCTTGATTCGCTTGACGCTGCTG	0.799
CCGATTAACATCACCTTGAACGGTGATGTTAATCGGGTCTTGATTCGCTTGACGCTGCTG	0.33
CCGATTAACATCAGTTTTCCCCATGATGTTAATCGGGTCTTGATTCGCTTGACGCTGCTG	9.45
CCGATTAACATCAAGGTTTCCCCTGATGTTAATCGGGTCTTGATTCGCTTGACGCTGCTG	8.15
CCGATTAACATCAAGAAAGTCCCTGATGTTAATCGGGTCTTGATTCGCTTGACGCTGCTG	1.38
CCGATTAACATCAGGGAGTCACCTGATGTTAATCGGGTCTTGATTCGCTTGACGCTGCTG	0.992
CCGATTAACATCAGGCTATCCCCTGATGTTAATCGGGTCTTGATTCGCTTGACGCTGCTG	2.18
CCGATTAACATCAGGGGGAAACCTGATGTTAATCGGGTCTTGATTCGCTTGACGCTGCTG	9.35
CCGATTAACATCACGAAAGTCCCTGATGTTAATCGGGTCTTGATTCGCTTGACGCTGCTG	0.217
CCGATTAACATCACGGAAAAAACTGATGTTAATCGGGTCTTGATTCGCTTGACGCTGCTG	1.37
CCGATTAACATCAAGAATCCCCCTGATGTTAATCGGGTCTTGATTCGCTTGACGCTGCTG	6.36
CCGATTAACATCAGGAAACTACCTGATGTTAATCGGGTCTTGATTCGCTTGACGCTGCTG	-0.297
CCGATTAACATCAACCCCAGCTCTGATGTTAATCGGGTCTTGATTCGCTTGACGCTGCTG	1.8
